Results: ChEMBL document CHEMBL4888484, “Replenishing the malaria drug discovery pipeline: Screening and hit evaluation of the MMV Hit Generation Library 1 (HGL1) against asexual blood stage Plasmodium falciparum ,using a nano luciferase reporter read-out” (2022)
In all, about 150,000 compounds went through this assay and about 540 (0.36%) showed an effect of 50% or more. Some of the results follow.

Tested on: Plasmodium falciparum
Assay: Primary screen in NF54 nanoGlo assay, in single point, at 2uM, 72h; a lower Z score goes with more inhibition
Type: functional, Erythrocyte
Details: timepoint 72 hour

Compound	% Inhibition [%]	Z score
CC(C)[C@H](C)N(Cc1nnsc1Cl)C1CC1	-7	0.69
Cc1nc(C)c(CN2CCC[C@H](O)C2)s1	-14	1.64
CCc1c(C)c(C(=O)NCc2ccccn2)n(Cc2cccc(C(F)(F)F)c2)c1C	-1	0.08
C=C(C)C(C)(C)C(=O)N[C@H]1CCOC[C@@H]1OCC1CC1	-18	3.42
CNC(=O)N[C@@H](Cc1ccc(F)cc1)C(C)C	29	-3.26
CC(C)c1nccc(NCCCn2ccnc2)n1	-7	0.65
Cc1noc(C)c1CC(=O)N1CCC(c2nnc(-c3ccc(F)cc3)o2)CC1	-5	0.53
C[C@@H](c1cccnc1)N(C)Cc1cccc2[nH]ccc12	-8	0.94
COC(=O)c1cc(CN)cc(NC(=O)c2cccc(OC)c2)c1	4	-0.66
COc1cncc(C(=O)N2CCCc3cc(S(C)(=O)=O)ccc32)n1	39	-4.38
Cn1cc(-c2ccc(-c3cnco3)s2)cn1	-6	0.8
c1cnc2nc(N3CC4CCC3C4)ccc2n1 (stereo not given)	-12	1.34
CCn1cc(-c2ccc(C)cc2)cc1C(=O)N1CCOCC1	8	-1.29
Oc1ccc2ccccc2c1C1Nc2cccc3cccc(c23)N1	-3	0.59
Cc1ccc(C(=O)Nc2ccc(N3CCC(N(C)CCCOC(C)C)CC3)c(C(=O)O)c2)cc1	-19	1.72
CCN1CCC[C@@]2(CCN(C(=O)c3c(C)n[nH]c3C3CC3)C2)C1=O	-9	1.76
CC1CC(Nc2cccc3c2CN(C)C3=O)c2nccn21 (stereo not given)	0	0.05
Cc1cc(COc2cc(F)ccc2F)on1	34	-3.83
CN(Cc1ccccc1)C(=O)N1CCN(C(=O)C#Cc2ccc3c(c2)OCO3)CC1	3	-0.45
Cc1c([C@H](C)NC(=O)c2cc(=O)[nH]c(=O)[nH]2)cnn1-c1cccc2ccccc12	-20	1.77
Cc1cc(F)ccc1CN1CC(N2CCNC2=O)C1	-8	1.24
O=C(CCC1CCCC1)N1C2C=CCC1CC2 (stereo not given)	-3	0.36

Compound	% Inhibition [%]	Z score
Cc1nnc(CNC(=O)c2c(C)c3cccc(C)c3n2C)o1	2	-0.25
Cc1csc(=O)n1CCc1nc(C2CCCCCC2)no1	-9	1.27
Cc1oc(-c2ccccc2F)nc1CN(Cc1ccccc1)C[C@@H]1CCC(=O)N1	6	-0.89
Cc1n[nH]c(C)c1S(=O)(=O)Nc1ccccc1Cc1ccccc1	2	-0.28
COc1ccc([C@@]2(c3nc(C)n[nH]3)CC2(C)C)cc1	-11	1.93
CC(C1CC1)n1cc(NC(=O)N[C@H]2CCOc3c(F)cccc32)cn1 (stereo not given in full)	-2	0.2
CC[C@H](C)N(Cc1ccncc1)C(=O)c1nc(C(C)C)cs1	4	-0.86
Cc1ncsc1CN[C@@H](C)c1cccc(-n2cnnc2)c1	-5	0.59
CC(C)Cc1cc(CNc2nccc(N3CCC[C@H](O)C3)n2)on1	-5	0.68
CN(C)S(=O)(=O)c1ccc(C(=O)N2CC[C@H](c3ccc4c(c3)CCO4)C2)cc1	-10	1.12
O=C(O)c1cncc(C(=O)N(CCc2cccc(F)c2)C2CC2)c1	35	-3.94
COCCC1(C(=O)n2nc(C3CCC3)nc2N)CCCC1	-13	1.29
COCCO[C@H]1CN(C2CCN(C(=O)c3ccc4ccccc4n3)CC2)C12CCCCC2	14	-2.24
COc1ccc(CCN2C(=O)N(c3cccc(C(F)(F)F)c3)[C@H](N(O)C(=O)Nc3cccc(C(F)(F)F)c3)C2(C)C)cc1	-2	0.26
NC(=NCCCOCCOCc1ccccc1)NC1CCCC1	-2	0.21
CC[C@@H](C(=O)O)N(CC)Cc1ccc(Cl)s1	-11	1.53
O=C(NCCc1cnc(C2CC2)nc1)[C@H]1CCCOC1	23	-2.95
CCc1nnc(COc2cc(C)nc3ccccc23)o1	27	-3.02
O=C(Nc1ccc(Cl)cc1)N1Cc2nc[nH]c2C[C@H]1c1nc(-c2ccc3ccccc3c2)no1	19	-2.22
CC(C)CS(=O)(=O)CCC(=O)N1CCCC[C@H]1c1ccco1	-6	0.9
N=C(Cc1ccccc1)NOC(=O)c1cccc2ccccc12	40	-5.13
COc1ccc2c(n1)N(C(=O)c1cc(C(F)F)ncn1)CC2	-6	0.97

Compound	% Inhibition [%]	Z score
CC(NC1C2CCOC2C12CCC2)c1cnccn1 (stereo not given)	-2	0.25
Cc1cccnc1[C@H](C)NC(=O)CCc1scnc1C	-10	1.11
CCn1ccc(C(=O)Nc2cnn3c2NCCC3)cc1=O	-3	0.48
CCN(CC)c1nc(C)nc2sc(C(=O)N3CCN(c4ccc(OC)cc4)CC3)c(C)c12	-7	1.1
CC1CC1C(=O)Nc1nnc(C2CC2)s1 (stereo not given)	17	-1.93
NC(=O)c1ccccc1NC(=O)C1CCN(c2cc(N3CCCC3)ncn2)CC1	7	-1.36
CN(Cc1ccc2c(c1)OCO2)C(=O)c1cnn[nH]1	-15	1.51
N#Cc1ccc(Oc2ccc(NC(=O)NCc3cccnc3)cc2)cc1	-5	0.95
CC[C@H](C)[C@H](NC(=O)[C@H](C)N1Cc2ccccc2C1=O)c1nc2ccccc2[nH]1	2	-0.23
COc1cccc(CC(=O)N2CCc3nc(N4CCCC4)nc(N4CCC(C)CC4)c3C2)c1	-1	0.13
CCc1nc(CN(Cc2ccco2)C(=O)NC(C)C)[nH]c(=O)c1Cc1ccc(OC)cc1	-3	0.48
C[C@H](NC(=O)Nc1nccs1)c1ccc(-n2cccn2)cc1	3	-0.48
N#CCN(C(=O)Cc1ccc(F)cc1)C1CC1	-8	1.1
CC(=O)N1CCN(C(=O)c2cc(S(=O)(=O)N(C)c3ccc(F)cc3)ccc2Cl)CC1	-11	1.46
CN(C(=O)c1ccc(F)c(Br)c1)c1ccnn1C	-5	0.79
O=C(NCCc1cscn1)N1CC(F)C1	6	-0.76
O=C(Nc1ccc2c(c1)OCCO2)c1ncn(C[C@H](O)c2ccc(F)cc2)n1	-18	2.09
O=C(C[C@@H]1C=CCC1)NS(=O)(=O)c1cccc2c1N=S=N2	4	-0.58
COCCN(Cc1ccncc1)C(=O)c1cc(-c2cc(OC)ccc2OC)nn1C	-6	0.65
COCCC(=O)N1CCc2nc(N3CCN(C)CC3)sc2C1	-8	1.13
CCc1nc(C)c(C(=O)N2CCCC[C@@H]2CCc2cccs2)o1	-8	1.05
CCCCN1C(=O)CCC(C(=O)Nc2ccc(C)cn2)C1c1ccccc1OC (stereo not given)	0	-0.03

Compound	% Inhibition [%]	Z score
COc1cc(N[C@H]2CC(=O)N(Cc3cccc(F)c3)C2)ncn1	-10	1.61
COC(=O)Nc1ccc(NC(=O)C(C)(C)F)cc1F	-11	1.39
CC[C@@H](COC(=O)Nc1cccc(C)c1)NC(=O)OCC(C)C	-7	0.97
C=C(C)COc1cccc(NC(=O)C(=O)N[C@H]2CCN(C(C)C)C2)c1	-7	1.43
O=C(Nc1nc(-c2ccccc2)cs1)c1cccc(S(=O)(=O)NCc2ccc3c(c2)OCO3)c1	-8	1.57
COc1ccc(-c2c(N3CCCC3)cn[nH]c2=O)cc1	-1	0.1
CC(C)=Cc1nc(C[C@H](C)N(C)C(=O)OC(C)(C)C)no1	-5	0.48
Cc1cc(F)cc(C(=O)OCCNc2ncccn2)c1	31	-3.5
CCC(=O)N1CCc2ccc(OCc3nc(C(=O)N4CCN(C(C)=O)CC4)cs3)cc2[C@@H]1c1ccccc1	-3	0.29
CC(C)(C)c1cc(CN2C[C@H](O)[C@@H](N3CCC(F)(F)CC3)C2)n[nH]1	-6	0.96
CC[C@@H](CO)N(Cc1ccc(F)cc1)C(=O)CCC(C)=O	-12	1.67
Cc1cc2nc(-c3ccccc3)cc(C(=O)N3CC[C@H](O)C3)c2cc1C	-9	0.93
Cc1cccc(-c2cn[nH]c2[C@H]2CCCN(C(=O)c3cc(F)ccc3F)C2)c1	2	-0.44
c1ccc(-c2cc(CC3(NC4CCCCC4)COC3)no2)nc1	18	-2.15
COCCC[C@H]1CCCN(C(=O)Cc2c[nH]c(=O)[nH]c2=O)C1	3	-0.47
CN1C[C@@H](CNC(=O)Nc2cncc(OCC(F)(F)F)n2)CC1=O	-12	1.64
c1cn(-c2ccc(CN3CCCC3)cc2)cn1	-11	1.61
CCn1nc(C)c(-c2cc(-c3ccc(CO)o3)c(C#N)c(N)n2)c1C	3	-0.39
CCc1nnc(C)cc1C(=O)N1CCC(c2nc3ccccc3s2)CC1	15	-2
